{
  "source": "ChEMBL document CHEMBL5308541",
  "about": "“MAIP: An Open-Source Tool to Enrich High-Throughput Screening Output and Identify Novel, Druglike Molecules with Antimalarial Activity” (ACS Med Chem Lett, 2023)",
  "note": "Screen size: about 150,000 compounds; about 540 (0.36%) showed an effect of 50% or more. Some of the results follow.",
  "data": [
    {"tested_on": "Plasmodium falciparum", "test": "Primary screen in NF54 nanoGlo assay, in single point, at 2uM, 72h; a lower Z score goes with more inhibition", "format": "functional, Erythrocyte", "details": "timepoint 72 hour", "units": {"% Inhibition": "%"}, "values": [
      {"molecule": "COC1(C(=O)O)CCN(C(=O)[C@@H]2C[C@@H]3C[C@@H]3C2)C1", "note": "(some centres not stated)", "% Inhibition": 2, "Z score": -0.33},
      {"molecule": "CC(C)NC(=O)c1ccnc(N2CC(CO)C(CN3CCN(C)CC3)C2)c1", "note": "(configuration not stated)", "% Inhibition": 2, "Z score": -0.36},
      {"molecule": "COCCCn1cnnc1CNc1cc([C@H]2C[C@@H](N)C2)nc(N(C)C)n1", "% Inhibition": -1, "Z score": 0.15},
      {"molecule": "O=C(NC1CNCC1O)c1cccc(-c2ncc(F)c(N3CCCC3)n2)c1", "note": "(configuration not stated)", "% Inhibition": 4, "Z score": -0.72},
      {"molecule": "COCCN1CCC(Nc2ncnc3c(C)cccc23)CC1", "% Inhibition": 4, "Z score": -0.91},
      {"molecule": "CN1C[C@@]2(CCCN(C(=O)CCN3CCCCCC3=O)CC2)OC1=O", "% Inhibition": -16, "Z score": 2.72},
      {"molecule": "CO[C@H]1C[C@H]2CC(NC3CCCN(c4cccnn4)C3)C[C@H]2C1", "note": "(some centres not stated)", "% Inhibition": -6, "Z score": 1.28},
      {"molecule": "Nc1nc(NC2CCN(c3cccnn3)CC2)nc2sccc12", "% Inhibition": -3, "Z score": 0.45},
      {"molecule": "CN1CCN(CC[C@H]2CCCCN2Cc2cnn(-c3ccc(F)cc3)c2)CC1", "% Inhibition": 3, "Z score": -0.51},
      {"molecule": "COc1ccc2cc(C(=O)NC3CCN(c4nc(C)nc5c4CCCC5)CC3)[nH]c2c1", "% Inhibition": -11, "Z score": 1.94},
      {"molecule": "O=C(c1cc(C2CC2)[nH]n1)N1CCN2C(=O)OCC2C1", "note": "(configuration not stated)", "% Inhibition": -6, "Z score": 1.15},
      {"molecule": "CC(C)(C)[C@@H]1NC(=O)CC[C@H]1NCc1cc2ccccc2[nH]1", "% Inhibition": -4, "Z score": 0.78},
      {"molecule": "Cn1ccnc1[C@@H](O)C1CCN(C(=O)NCc2ccnc3ccccc23)CC1", "% Inhibition": 3, "Z score": -0.56},
      {"molecule": "CC1CCN(CCCCNC(=O)N2CCC(C)[S+]([O-])CC2)CC1", "note": "(configuration not stated)", "% Inhibition": -1, "Z score": 0.08},
      {"molecule": "O[C@@H]1CCCC[C@H]1Oc1ccc(Nc2ncnc3ccc(F)cc23)cc1", "% Inhibition": -7, "Z score": 1.39},
      {"molecule": "Cc1ncc(COc2c(C)c(C)nn2C)o1", "% Inhibition": 11, "Z score": -2.42},
      {"molecule": "C[C@H]1CN(C2CCOCC2)CCN1C(=O)NCc1cccc(-c2cccnc2)c1", "% Inhibition": -1, "Z score": 0.29},
      {"molecule": "Cn1nc(C(=O)Nc2cnc(CC3CC3)nc2)cc1C(F)(F)F", "% Inhibition": 1, "Z score": -0.26},
      {"molecule": "COCCCN1CCC(Nc2ccc3c(Cl)ccc(C)c3n2)CC1", "% Inhibition": -3, "Z score": 0.68},
      {"molecule": "CC(NC(=O)OC(C)(C)C)C1CCN(C[C@@H]2CCCN2C(=O)OC(C)(C)C)CC1", "note": "(some centres not stated)", "% Inhibition": 33, "Z score": -6.49},
      {"molecule": "CC(=O)N1CCN(C(=O)[C@H](C)N2CCC(c3cccc4cnccc34)CC2)CC1", "% Inhibition": -7, "Z score": 1.07},
      {"molecule": "O=C(c1cc(C2CC2)[nH]c(=O)c1)N1CC2CC3CC2C1C3O", "note": "(configuration not stated)", "% Inhibition": -1, "Z score": 0.11},
      {"molecule": "O=C(c1ccc(-c2ccc3ncccc3c2)cc1)N1CCN(CCCO)CC1", "% Inhibition": -9, "Z score": 1.61},
      {"molecule": "COc1cccc(-c2ccnc(Nc3ccccc3)n2)c1", "% Inhibition": -1, "Z score": 0.15},
      {"molecule": "CNc1nc(C)c(-c2ccnc(Nc3cccc(S(C)(=O)=O)c3)n2)s1", "% Inhibition": 47, "Z score": -7.17},
      {"molecule": "Fc1cnc(Nc2cccc(OC3CCCC3)c2)nc1", "% Inhibition": -9, "Z score": 1.61},
      {"molecule": "Fc1ccc(N2CCC(N3CCC[C@H](Cn4ccnc4)C3)CC2)cc1F", "% Inhibition": 16, "Z score": -3.41},
      {"molecule": "Cn1c(NCc2cccnc2)nc2c(F)cccc21", "% Inhibition": 0, "Z score": -0.02},
      {"molecule": "C[C@H]1CCCN(c2cc(NC3CCN(c4nccs4)CC3)ncn2)C1", "% Inhibition": -12, "Z score": 1.85},
      {"molecule": "CCOC(=O)[C@@](C)(NC(=O)CS(=O)(=O)CC(C)C)C(C)C", "% Inhibition": -3, "Z score": 0.44},
      {"molecule": "Cc1cccc2[nH]cc(-c3csc(NCC(F)(F)F)n3)c12", "% Inhibition": -8, "Z score": 1.32},
      {"molecule": "CS(=O)(=O)Cc1ccc(CNc2ccnc3c(F)ccc(F)c23)cc1", "% Inhibition": -12, "Z score": 2.08},
      {"molecule": "C[C@@H](CN1CCOCC1)NC(=O)c1cccc(-c2cncc(N(C)C)n2)c1", "% Inhibition": -10, "Z score": 1.81},
      {"molecule": "Cc1cc(N2CCC(NCc3nc(-c4cnccn4)n[nH]3)CC2)nc(N)n1", "% Inhibition": -10, "Z score": 1.77},
      {"molecule": "COc1ccccc1NC1CCN([C@@H](C)CN2CCOCC2)CC1", "% Inhibition": -15, "Z score": 2.62},
      {"molecule": "CCN(CC1=Nc2ccccc2S(=O)(=O)N1)Cc1ccc2[nH]ccc2c1", "% Inhibition": -10, "Z score": 1.8},
      {"molecule": "CC(C)(C#N)c1ccc(-c2ncnc3[nH]ccc23)cc1", "% Inhibition": -9, "Z score": 1.47},
      {"molecule": "COC[C@@]1(C(=O)O)CCCN1S(=O)(=O)c1ccccc1C#N", "% Inhibition": 8, "Z score": -1.33},
      {"molecule": "O=S(=O)(N[C@H](c1cccnc1)c1c[nH]c2ccccc12)c1ccc(Cl)cc1", "% Inhibition": 2, "Z score": -0.42},
      {"molecule": "CC(CCO)CNc1nc(NCC(C)CCO)c2ccccc2n1", "note": "(configuration not stated)", "% Inhibition": 1, "Z score": -0.17},
      {"molecule": "CC(C)[C@H](C)NCCCCN1CCN(C)CC1", "% Inhibition": 2, "Z score": -0.29}
    ]}
  ]
}
